In the supplement of paper PMC10126150:
Sequences with one replicate were seen in a single cluster, so their values are uncertain.

Test system: ATP
Assay: switch fluorescence ratio, 500 uM ATP over buffer (Cy3 cluster intensity, sum of 5 cycles each) (fold (ratio)); higher = stronger signal-on switching upon ATP binding; sequences stand for … in TCGTCGGCAGCGTCAGATGTGTATAAGAGACAGTTTTTTTTTTTTTTTTTTTTTTTTT…TC
Conditions: aptamer strand: ATP DNA aptamer (quencher-CACCTGGGGGAGTATTGCGGAGGAAGG + anchor), 100 nM annealed; ATP concentration: 500 uM; one replicate
In short: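 The quencher-labelled ATP aptamer, at 100 nM, was annealed to Cy3-labelled switching-strand clusters on a modified Illumina MiSeq flow-cell. The clusters were imaged in selection buffer, then after 15 min with 500 uM ATP at 22 °C, and this buffer/ATP cycle ran five times with NaOH stripping and re-annealing between runs. Per-cluster fluorescence ratios, summed target-cycle over summed buffer-cycle Cy3 intensity, were averaged per switch-domain sequence. Clusters outside 100-1000 RFU were excluded.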
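Further: ATP exposure 15 min at 22 °C before imaging.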

TGTCGGACGT was tested, and the switch fluorescence ratio was 1.01.
GGAGTATGTA was tested, and the switch fluorescence ratio was 0.99.
TAATTTGGGG gave a switch fluorescence ratio of 0.963.
For AGGCGCGTCC, the switch fluorescence ratio was 0.966.
For TCACCGAACT, the switch fluorescence ratio was 1.24.
For CTAGCTCTTG, the switch fluorescence ratio was 1.03.
In the case of CCCATGTGCT, the switch fluorescence ratio is reported as 1.73.
Sequence AATTACGGTC has a switch fluorescence ratio of 0.958.
CGGAACCCAA was tested, and the switch fluorescence ratio was 1.1.
TACTAAAGTC gave a switch fluorescence ratio of 1.03.
AATATGCCCC gave a switch fluorescence ratio of 1.06.
With TTCTCCACG the switch fluorescence ratio was 1.06.
Work on ATAATGGTGG yielded a switch fluorescence ratio of 0.983.
Work on AGCTGCGCTA yielded a switch fluorescence ratio of 0.972.
With GTATGAGCTG the switch fluorescence ratio was 0.957.
For CGCTCACAT, the switch fluorescence ratio was 1.29.
CTTAGGAGCT showed a switch fluorescence ratio of 0.987.
GAGCAAGTCC gave a switch fluorescence ratio of 1.65.
GTTTAGGTCA showed a switch fluorescence ratio of 0.98.
In the case of CACACACGGG, the switch fluorescence ratio is reported as 1.83.
CTCGAAAATG showed a switch fluorescence ratio of 1.03.
Sequence TAAATCGGCC has a switch fluorescence ratio of 1.14.
Sequence GTCTAAGCCT has a switch fluorescence ratio of 1.12.
Work on ACCGTAAATG yielded a switch fluorescence ratio of 1.14.
GCATTGCAGG gave a switch fluorescence ratio of 1.01.
Sequence GGCTATGTT has a switch fluorescence ratio of 1.03.
For GTGTGAGACA, the switch fluorescence ratio was 1.01.
Sequence TGAGCTATTT has a switch fluorescence ratio of 0.965.
Work on GGAACGATGG yielded a switch fluorescence ratio of 0.969.
In the case of TCCGGTAC, the switch fluorescence ratio is reported as 3.72.
AAAACCACTC showed a switch fluorescence ratio of 1.24.
AAGATGGTGA was tested, and the switch fluorescence ratio was 0.995.
Work on GACGATTCCT yielded a switch fluorescence ratio of 1.02.
With GGTTTTAGTA the switch fluorescence ratio was 1.04.
For TCAATTCTGC, the switch fluorescence ratio was 0.908.
CGTGCGGTTT was tested, and the switch fluorescence ratio was 1.02.
AGATTCAGGC was tested, and the switch fluorescence ratio was 1.01.
GCTTGTCAGA gave a switch fluorescence ratio of 0.994.
With ATATCGACAC the switch fluorescence ratio was 1.04.
Sequence TACAAAAACA has a switch fluorescence ratio of 0.979.
In the case of AGCGGGGTAG, the switch fluorescence ratio is reported as 0.977.
GGAAGAATGC gave a switch fluorescence ratio of 1.05.
For GAACAGAGCA, the switch fluorescence ratio was 1.02.
Sequence CATAAATTTC has a switch fluorescence ratio of 0.98.
Work on GACTTGCACT yielded a switch fluorescence ratio of 1.13.
In the case of TCCCGCCGCC, the switch fluorescence ratio is reported as 3.74.
For CCATCGGT, the switch fluorescence ratio was 0.995.
GGCCATACT gave a switch fluorescence ratio of 1.03.
ATGGCATCTC gave a switch fluorescence ratio of 0.978.
TTAGCGCTCC showed a switch fluorescence ratio of 1.61.
TAACAATTAT was tested, and the switch fluorescence ratio was 0.996.
CGTTCCTTTC showed a switch fluorescence ratio of 1.6.
CTTGGTGAGA was tested, and the switch fluorescence ratio was 0.997.
Work on GGTTTGTTCG yielded a switch fluorescence ratio of 1.02.
Work on AGTGCACGA yielded a switch fluorescence ratio of 1.01.
Sequence TAGGTTTGAT has a switch fluorescence ratio of 0.96.
With CATGGTTCGG the switch fluorescence ratio was 0.976.
In the case of TGTGACACAA, the switch fluorescence ratio is reported as 0.964.
Work on AAAGTAGCGA yielded a switch fluorescence ratio of 0.998.
CGGGCGTGCA was tested, and the switch fluorescence ratio was 1.01.
In the case of TTGATTCCTC, the switch fluorescence ratio is reported as 1.14.
GGAGTATTAA showed a switch fluorescence ratio of 1.02.
With ACCTGTTTTG the switch fluorescence ratio was 0.973.
Sequence TATACGTCTG has a switch fluorescence ratio of 1.05.
For TATTTGGACA, the switch fluorescence ratio was 1.
GTTACCTTCG gave a switch fluorescence ratio of 2.07.
ACTGGCACAC showed a switch fluorescence ratio of 1.26.
Work on CTGGGATACT yielded a switch fluorescence ratio of 1.65.
CCCCGGCTAT showed a switch fluorescence ratio of 3.66.
TTCATGAGAG was tested, and the switch fluorescence ratio was 1.01.
GGAGCCTTTA showed a switch fluorescence ratio of 1.
TGGTGGACAT showed a switch fluorescence ratio of 0.985.
AGCATTGACG gave a switch fluorescence ratio of 1.1.
Work on GATGTACGAT yielded a switch fluorescence ratio of 1.05.
GATTAGTTTG showed a switch fluorescence ratio of 1.
For GCATCAGCAG, the switch fluorescence ratio was 1.02.
CGAAGACTA was tested, and the switch fluorescence ratio was 1.01.
Sequence GTCTTAAGCT has a switch fluorescence ratio of 0.961.
GGCGCTTCG gave a switch fluorescence ratio of 1.02.
In the case of AGGTAGAGCG, the switch fluorescence ratio is reported as 0.996.
For TACAAGAGA, the switch fluorescence ratio was 0.976.
Sequence CTATGGCAAC has a switch fluorescence ratio of 1.2.
Work on GCAAGAGTAG yielded a switch fluorescence ratio of 1.
GAGCTCA showed a switch fluorescence ratio of 0.999.
Work on CGCGAGTCCA yielded a switch fluorescence ratio of 1.05.
For CGGACTCGGG, the switch fluorescence ratio was 0.962.
TTAGTGGCTC was tested, and the switch fluorescence ratio was 1.
With ACTCCCAGGA the switch fluorescence ratio was 3.31.
In the case of CATCGCACGC, the switch fluorescence ratio is reported as 3.33.
With GCCTACGTGC the switch fluorescence ratio was 1.09.
With CTGGCACTG the switch fluorescence ratio was 0.971.
AACAGGCCGT was tested, and the switch fluorescence ratio was 1.
With TGCAAGAGGT the switch fluorescence ratio was 1.03.
TCCGTGGTTG showed a switch fluorescence ratio of 1.04.
Work on ATGGATGC yielded a switch fluorescence ratio of 1.06.
For TGCACGGATT, the switch fluorescence ratio was 1.08.
With GCGATCTATC the switch fluorescence ratio was 0.98.
TACGAGACTC gave a switch fluorescence ratio of 1.12.
With TAGTATTGAG the switch fluorescence ratio was 1.03.
CGCGTCTGTC gave a switch fluorescence ratio of 1.01.
TGTGTGTGT was tested, and the switch fluorescence ratio was 1.
With CGTCGCTTCC the switch fluorescence ratio was 1.74.
Sequence TTAAAGGAAT has a switch fluorescence ratio of 1.
Sequence GTTCGTCCGC has a switch fluorescence ratio of 3.27.
ACGGGGCTCG was tested, and the switch fluorescence ratio was 1.02.
AGCCGCTTGT gave a switch fluorescence ratio of 1.06.
In the case of AGGTCCTCTC, the switch fluorescence ratio is reported as 1.02.
CAAGTTACTG gave a switch fluorescence ratio of 1.12.
Work on GCTGGTGGGC yielded a switch fluorescence ratio of 1.
With GGCCGTGGAG the switch fluorescence ratio was 0.984.
Sequence GGCCGGGGAT has a switch fluorescence ratio of 1.01.
AATTTTGGCA showed a switch fluorescence ratio of 0.996.
For CGATTCGGT, the switch fluorescence ratio was 0.998.
GATCGAGCGG was tested, and the switch fluorescence ratio was 1.04.
Work on AAATCTGCGC yielded a switch fluorescence ratio of 1.05.
Sequence TCTGAACCTA has a switch fluorescence ratio of 1.01.
Sequence CGGAGGTTG has a switch fluorescence ratio of 1.02.
For ATGACGAAGA, the switch fluorescence ratio was 1.01.
TTCCGGTTGC gave a switch fluorescence ratio of 1.53.
In the case of TAAATGCCGT, the switch fluorescence ratio is reported as 1.07.
For ACTGAGGCTC, the switch fluorescence ratio was 1.01.
In the case of ACAGGCGGAT, the switch fluorescence ratio is reported as 1.04.
Work on CTACGCGGGC yielded a switch fluorescence ratio of 2.6.
For TACGAGAAGG, the switch fluorescence ratio was 1.03.
In the case of GTGTGGACCA, the switch fluorescence ratio is reported as 1.04.
For GGGTAAACGT, the switch fluorescence ratio was 1.03.
In the case of GTGAGAACGT, the switch fluorescence ratio is reported as 1.02.
With ACCGGATCAA the switch fluorescence ratio was 1.1.
Work on TACTGACAAT yielded a switch fluorescence ratio of 1.14.
CGCTATAGTT gave a switch fluorescence ratio of 1.22.
In the case of GCAAGGTCAA, the switch fluorescence ratio is reported as 1.02.
CGATCTGTAA was tested, and the switch fluorescence ratio was 1.
For CGATTAGCGG, the switch fluorescence ratio was 1.02.
GAAGTGAGTC was tested, and the switch fluorescence ratio was 0.978.
Work on CGCCCGAGAG yielded a switch fluorescence ratio of 1.08.
For CCATCACAT, the switch fluorescence ratio was 0.996.
In the case of GGATCCCGGG, the switch fluorescence ratio is reported as 1.
Sequence TAAATGAGTC has a switch fluorescence ratio of 0.991.
Sequence TAGGTTCTGA has a switch fluorescence ratio of 0.98.
CAAGAAGCCC showed a switch fluorescence ratio of 0.938.
AACCTGACAT was tested, and the switch fluorescence ratio was 1.43.
For TTACTGCCGC, the switch fluorescence ratio was 1.05.
With GTTGATGTGC the switch fluorescence ratio was 1.01.
AGATGTAGTC was tested, and the switch fluorescence ratio was 1.
Work on TGGAAGACCT yielded a switch fluorescence ratio of 1.02.
ATATTCAGAT gave a switch fluorescence ratio of 1.04.
Work on GTGAGTTCGT yielded a switch fluorescence ratio of 0.993.
GCGGTTAAAA was tested, and the switch fluorescence ratio was 0.995.
For GTGCTATCAG, the switch fluorescence ratio was 1.01.
TAACTAACTC showed a switch fluorescence ratio of 1.04.
In the case of GGCGTAAAAC, the switch fluorescence ratio is reported as 1.4.
Sequence TTGACGACCG has a switch fluorescence ratio of 1.
CGATGTGGCA was tested, and the switch fluorescence ratio was 1.07.
TCTATTGTGA showed a switch fluorescence ratio of 0.989.
TAAGCTCAGC was tested, and the switch fluorescence ratio was 1.04.
Work on ATGGTCATCG yielded a switch fluorescence ratio of 1.02.
With GGAGGACGTC the switch fluorescence ratio was 1.03.
TTTACATTCT was tested, and the switch fluorescence ratio was 1.03.
With ATCTTGACGG the switch fluorescence ratio was 0.989.
With AGCTCAGGCT the switch fluorescence ratio was 0.959.
AGAGGACTCG was tested, and the switch fluorescence ratio was 1.
With CATTCGATCA the switch fluorescence ratio was 1.
In the case of TTTCAGATTG, the switch fluorescence ratio is reported as 0.975.
In the case of CGGGGAAACG, the switch fluorescence ratio is reported as 0.987.
ATTGGTCATT was tested, and the switch fluorescence ratio was 0.994.
Sequence GGGCATCTCC has a switch fluorescence ratio of 1.09.
With CATGAGTAGT the switch fluorescence ratio was 0.973.
For TAGAGAGTAA, the switch fluorescence ratio was 1.02.
For GAGACAGA, the switch fluorescence ratio was 1.03.
Sequence TTAGGCGAAG has a switch fluorescence ratio of 1.03.
TACTAAATGT gave a switch fluorescence ratio of 1.02.
CAGACGACTT showed a switch fluorescence ratio of 1.09.
For TAAACGTAGC, the switch fluorescence ratio was 1.01.
TGGCGTTGAG was tested, and the switch fluorescence ratio was 0.992.
With TAACCTATTT the switch fluorescence ratio was 1.01.
Work on CACGGGTAAC yielded a switch fluorescence ratio of 1.04.
TTGGTCCTGC was tested, and the switch fluorescence ratio was 1.02.
For GTCCTTTATA, the switch fluorescence ratio was 0.98.
With CCCCGTGATG the switch fluorescence ratio was 3.06.
With GTAAGCTCTC the switch fluorescence ratio was 1.06.
Sequence GTACCCTCCG has a switch fluorescence ratio of 2.06.
ATGCCCAATT showed a switch fluorescence ratio of 0.977.
Sequence CGATGTAGAC has a switch fluorescence ratio of 1.38.
Sequence CACCTGCATA has a switch fluorescence ratio of 1.7.
In the case of CATCGATACT, the switch fluorescence ratio is reported as 1.21.
CCCTCCTTAA was tested, and the switch fluorescence ratio was 1.42.
With AATGCTTGGT the switch fluorescence ratio was 1.02.
With CTGACGCGAG the switch fluorescence ratio was 1.24.
Sequence GACGTGTTAG has a switch fluorescence ratio of 1.03.
With AATCATCAT the switch fluorescence ratio was 0.998.
TTCTTACATT was tested, and the switch fluorescence ratio was 1.
In the case of GATGTCCCGA, the switch fluorescence ratio is reported as 1.01.
ATTGGTGTGG gave a switch fluorescence ratio of 0.963.
CAAATTACCT gave a switch fluorescence ratio of 1.28.
Sequence ATCTGGT has a switch fluorescence ratio of 1.
For TTAATGATA, the switch fluorescence ratio was 0.954.
Work on CAATCGTATG yielded a switch fluorescence ratio of 1.
Work on AGGGTCGATT yielded a switch fluorescence ratio of 1.
For TTACGACGGG, the switch fluorescence ratio was 0.993.
Sequence TCAATTTCGA has a switch fluorescence ratio of 1.02.
For ACGATGTTCT, the switch fluorescence ratio was 0.969.
